# According to PubChem BioAssay (Tox21):
# Where “and” joins values, the source holds several entries; their conditions need not be identical. Equal entries are not always repeated. This list was built around the results that the source calls inconclusive (neither active nor inactive); the mix of calls is not that of the screen. Potencies of inconclusive entries are doubtful fits and often do not repeat. Calls of active or inactive are those of the source. Calls come from the whole dose curve; as a rule, active = well fitted curve in the direction sought with a large enough effect in the repeat runs; inconclusive = weak or mixed curves; inactive = no such curve, though single readings can be large; an effect the other way counts as inactive or inconclusive.
# Test: qHTS RealTime-Glo MT Cell Viability Assay in HepG2 cells - 0 hour (AID 1224889); note: nearly all actives have a fitted effect of over 50% in size
# Details: RealTime-Glo luminescence; series mostly up to 76.8 µM
# Procedure, shortened: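 qHTS, HepG2, 600 cells/well, RealTime-Glo (NanoLuc + prosubstrate) added with cells; 5 h preincubation; DMSO compound addition; 37 C; luminescence at 0/8/16/24/32/40 h.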
# Potency is the fitted concentration of half-maximal effect; tags give direction and shape of the fitted curve.
row,Structure (SMILES),Potency
1,Cc1cc(Nc2ccc(O)cc2)ccc1N,"inconclusive: 43.5 µM [cytotoxic, partial curve]"
2,CCC(C)Nc1ccc(NC(C)CC)cc1 (stereo not given),"inconclusive: 49.9 µM [cytotoxic, partial curve]"
3,Cc1cc(O)c2ccccc2c1O,"inconclusive: 6.01 µM [cytotoxic, partial curve]"
4,CCCCCCCCCCCCN(CCO)CCO,"inconclusive: 15.4 µM [rising, partial curve]"
5,CCCCC(CC)CN1CN(CC(CC)CCCC)CC(C)(N)C1 (stereo not given),"inconclusive: 23.9 µM [rising, partial curve]"
6,Clc1ccccc1C(c1ccccc1)(c1ccccc1)n1ccnc1,"inconclusive: 49 µM [cytotoxic, partial curve, poor fit]"
7,CN(C)c1ccc(C(=C2C=CC(=[N+](C)C)C=C2)c2ccccc2)cc1,"inconclusive: 38.9 µM [cytotoxic, partial curve, poor fit]"
8,C#C[C@]1(O)CC[C@H]2[C@@H]3CCC4=CC(=O)CC[C@@H]4[C@H]3CC[C@@]21CC,"inconclusive: 39 µM [cytotoxic, partial curve, poor fit] and inconclusive: 54.9 µM [cytotoxic, partial curve, poor fit] and inconclusive: 27.5 µM [cytotoxic, partial curve, poor fit]"

# Test: A CellTox Green Cytotoxicity Assay to monitor cytotoxicity in HepG2 cells - 8 hour (AID 1224890); note: nearly all actives have a fitted effect of over 45% in size
# Details: CellTox Green fluorescence; series mostly up to 76.8 µM
# Procedure, shortened: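 HepG2 cells, 600/well, preincubated 5 h with CellTox Green dye, then exposed to Tox21 compounds in DMSO at 37 C for up to 40 h. Dead-cell DNA fluorescence read at the indicated time point.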
row,Structure (SMILES),Potency
1,CN(C)C(=S)SC(=S)N(C)C,"inconclusive: 54.9 µM [activator, partial curve, poor fit]"
2,O=C(NO)c1ccccc1,"inconclusive: 52.3 µM [activator, single point]"
3,CCCCC/C(C=O)=C\c1ccccc1,"inconclusive: 54.9 µM [activator, single point]"
4,CCC(C)Nc1ccc(NC(C)CC)cc1 (stereo not given),"inconclusive: 56 µM [activator, single point]"
5,CSc1ccc2c(c1)N(CCC1CCCCN1C)c1ccccc1S2 (stereo not given),"inconclusive: 61.4 µM [activator, single point] and inconclusive: 26.8 µM [activator, single point]"
6,CCCCCCCCCCCCN(CCO)CCO,"inconclusive: 54.7 µM [activator, single point]"
7,NC(=O)C1(N2CCCCC2)CCN(CCCN2c3ccccc3CCc3ccc(Cl)cc32)CC1,"inconclusive: 26.8 µM [activator, single point]"
8,CCCCCCCCOC(=O)c1ccc(O)cc1,"inconclusive: 54.9 µM [activator, single point]"
9,N#CSCSc1nc2ccccc2s1,"inconclusive: 54.9 µM [activator, single point]"
10,CC/C(=C(\c1ccc(O)cc1)c1ccc(OCCN(C)C)cc1)c1ccccc1,"inconclusive: 61.8 µM [activator, single point]"
11,CCCCCCCCCCCCCCCCCC[N+](C)(C)C,"inconclusive: 61.9 µM [activator, single point]"
12,CCCCCCOc1cc(C)c(O)c(C)c1C,active: 35.1 µM
13,CCCCCCCCOC(=O)c1cc(O)c(O)c(O)c1,"inconclusive: 54.9 µM [activator, single point]"
14,CN(C)c1ccc(C(=C2C=CC(=[N+](C)C)C=C2)c2ccccc2)cc1,"inconclusive: 21.3 µM [activator, partial curve, poor fit] and inconclusive: 9.52 µM [activator, partial curve]"
15,Clc1ccc2c(c1)C(N1CCNCC1)=Nc1ccccc1O2,"inconclusive: 26.8 µM [activator, single point]"
16,C#C[C@]1(O)CC[C@H]2[C@@H]3CCC4=CC(=O)CC[C@@H]4[C@H]3CC[C@@]21CC,"inconclusive: 43.6 µM [activator, partial curve, poor fit]"
17,CC(O)(c1ccc(Cl)cc1)c1ccc(Cl)cc1,active: 54.9 µM
18,CC1=C(/C=C/C(C)=C/C=C/C(C)=C/C(=O)Nc2ccc(O)cc2)C(C)(C)CCC1,"inconclusive: 26.8 µM [activator, single point]"
19,CC[C@H](C)C(=O)O[C@H]1C[C@@H](C)C=C2C=C[C@H](C)[C@H](CC[C@@H]3C[C@@H](O)CC(=O)O3)[C@H]21,"inconclusive: 55.7 µM [activator, single point]"

# Test: qHTS assay to identify small molecule antagonists of the estrogen receptor alpha (ER-alpha) signaling pathway using the BG1 cell line in the presence of 0.1 nM 17-beta-estradiol - cell viability counter screen (AID 1259241); note: nearly all actives have a fitted effect of over 40% in size
# Details: VM7Luc4E2 (BG1) viability, CellTiter-Fluor protease, 22 h, 0.1 nM estradiol agonist added; series mostly up to 92.4 µM
# Procedure, shortened: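 CellTiter-Fluor read (30 min, 37C) on ER-alpha/ERE-luc VM7Luc4E2 cells; 22 hr compound treatment; agonist 0.1 nM E2 final; same-well multiplex.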
row,Structure (SMILES),Potency
1,O=S1(=O)CC(Cl)(Cl)C(Cl)(Cl)C1,active: 21.7 µM
2,Cc1cc(Nc2ccc(O)cc2)ccc1N,active: 27.2 µM
3,Cc1cc(O)c2ccccc2c1O,active: 29.8 µM
4,CCCCCCCCOC(=O)c1ccc(O)cc1,"inconclusive: 6.11 µM [cytotoxic, single point]"
5,CC/C(=C(\c1ccc(O)cc1)c1ccc(OCCN(C)C)cc1)c1ccccc1,inconclusive: 77.1 µM [cytotoxic]
6,CCCCCCCCOC(=O)c1cc(O)c(O)c(O)c1,"inconclusive: 54.5 µM [cytotoxic, partial curve]"
7,CC(C)OC(=O)C(C)(C)Oc1ccc(C(=O)c2ccc(Cl)cc2)cc1,"inconclusive: 61.1 µM [cytotoxic, partial curve, poor fit]"
8,CC1=C(/C=C/C(C)=C/C=C/C(C)=C/C(=O)Nc2ccc(O)cc2)C(C)(C)CCC1,active: 55.9 µM and active: 11.9 µM
